{
  "source": "PubChem BioAssay AID1460",
  "about": "(National Center for Advancing Translational Sciences (NCATS), 2008)",
  "note": "Where “and” joins values, the source holds several entries; their conditions need not be identical. Equal entries are not always repeated. Hit rate of the full screen: of about 270,000 compounds, about 5,800 (2.1%) were called active. Inconclusive means that the source gave no clear call. Such entries were picked first, then a sample of the others. Calls follow the shape of the dose curve; as a rule, active = well fitted inhibition curve with a large enough effect; inconclusive = small, poorly fitted or top-dose-only effect; inactive = flat fitted curve, though single readings scatter. Potencies of inconclusive entries are doubtful fits and often do not repeat. % is scaled to controls: 0 for no effect and ±100 for the full control effect; potency is read from the fitted curve at half-maximal effect; tags tell the direction and shape of the fitted curve.",
  "data": [
    {"target": "Microtubule-associated protein tau (Homo sapiens) (UniProt P10636)", "sequence (P10636 whole entry, looked up, the tested form may be a part)": "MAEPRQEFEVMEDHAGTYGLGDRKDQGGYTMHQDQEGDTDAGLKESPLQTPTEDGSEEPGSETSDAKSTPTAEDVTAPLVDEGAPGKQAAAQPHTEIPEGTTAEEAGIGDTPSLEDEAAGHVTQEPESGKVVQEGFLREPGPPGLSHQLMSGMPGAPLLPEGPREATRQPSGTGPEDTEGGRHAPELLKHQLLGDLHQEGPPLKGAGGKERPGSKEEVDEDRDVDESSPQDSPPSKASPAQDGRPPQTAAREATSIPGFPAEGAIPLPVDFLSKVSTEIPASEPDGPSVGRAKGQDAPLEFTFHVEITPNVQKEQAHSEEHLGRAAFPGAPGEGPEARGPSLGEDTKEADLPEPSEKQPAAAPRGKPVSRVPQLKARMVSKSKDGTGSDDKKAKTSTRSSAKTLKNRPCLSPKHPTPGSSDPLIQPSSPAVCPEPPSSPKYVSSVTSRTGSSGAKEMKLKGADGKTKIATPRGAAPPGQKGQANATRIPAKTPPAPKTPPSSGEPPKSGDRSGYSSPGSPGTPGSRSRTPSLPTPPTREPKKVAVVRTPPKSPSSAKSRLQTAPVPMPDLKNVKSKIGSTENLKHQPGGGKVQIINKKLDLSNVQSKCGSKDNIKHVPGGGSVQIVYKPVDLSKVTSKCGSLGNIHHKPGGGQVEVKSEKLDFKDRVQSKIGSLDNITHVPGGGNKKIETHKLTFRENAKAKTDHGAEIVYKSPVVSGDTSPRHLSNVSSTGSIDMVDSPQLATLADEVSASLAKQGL", "assay": "qHTS for Inhibitors of Tau Fibril Formation, Thioflavin T Binding; also: nearly all actives have a fitted effect of over 55% in size", "details": "recombinant tau K18 P301L (four-repeat tau fragment), heparin-induced fibrillization, ThT fluorescence; series mostly up to 57.4 µM; activity, negative = inhibition: at the top concentration", "outline": "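Recombinant human tau K18 fragment […] carrying P301L, 15 uM unlabeled plus 0.24 uM Alexa 594-labeled, was fibrillized with 20 uM heparin in 100 mM sodium acetate pH 7 for 6 hr at 37 C; 30 uM ThT fluorescence read after 1 hr.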", "values": [
      {"smiles": "Cc1sc(NC(=O)c2cc(-c3ccccc3)nc3ccccc23)c(C(N)=O)c1C", "Potency": "inconclusive: 11.2 µM [inhibitor, partial curve]"},
      {"smiles": "Nc1ccc2c3c(cccc13)C(=O)NC2=O", "Potency": "inconclusive: 6.31 µM [activator, partial curve]"},
      {"smiles": "O=C(Nc1ccc(N2CCN(C(=O)c3ccccc3)CC2)c(Cl)c1)c1ccc(Br)o1", "Potency": "inconclusive: 15.8 µM [inhibitor, partial curve]"},
      {"smiles": "O=c1cc(COc2ccc(Cl)c(Cl)c2)nc2sccn12", "Potency": "inconclusive: 0.708 µM [inhibitor, full curve]"},
      {"smiles": "COc1ccc(/C(C)=N/NC(=O)CNC(=O)Cc2ccccc2)c(OC)c1", "activity, negative = inhibition": "inactive: -1.12%"},
      {"smiles": "CC(C)c1nc(SCC(=O)N2CCc3ccccc32)n[nH]1", "activity, negative = inhibition": "inactive: -8.95%"},
      {"smiles": "CCCCc1c(C)nc(N)[nH]c1=O", "activity, negative = inhibition": "inactive: -12.9%"},
      {"smiles": "CC1=C(C(=O)Nc2cccc(Cl)c2C)C2(CCCCCC2)OC1=O", "activity, negative = inhibition": "inactive: 0.614%"},
      {"smiles": "Cc1cc(C)cc(N2C(=O)CC(Sc3ncn[nH]3)C2=O)c1", "note": "(centres undefined)", "Potency": "inconclusive: 17.8 µM [inhibitor, single point]"},
      {"smiles": "CCOc1ccc(NC(=O)CC2SC(=O)N(c3ccccc3)C2=O)cc1", "note": "(centres undefined)", "Potency": "inconclusive: 7.08 µM [inhibitor, partial curve]"},
      {"smiles": "O=c1cccccc1NCc1ccccc1", "activity, negative = inhibition": "inactive: -14.4%"},
      {"smiles": "CCOC(=O)Nc1ccc(OCc2nnc3c4ccccc4c(C)nn23)cc1", "Potency": "inconclusive: 5.01 µM [inhibitor, partial curve]"},
      {"smiles": "O=C(Nc1cccnc1)c1cc(-c2ccc(Br)cc2)on1", "Potency": "inconclusive: 3.55 µM [inhibitor, partial curve, poor fit]"},
      {"smiles": "Cc1ccc(C2Nc3ccccc3-c3nc4ccccc4n32)o1", "note": "(centres undefined)", "Potency": "inconclusive: 20 µM [inhibitor, partial curve]"},
      {"smiles": "Nc1ccc2nc(-c3cccs3)[nH]c2c1", "Potency": "inconclusive: 15.8 µM [inhibitor, partial curve]"},
      {"smiles": "Cc1c(Cl)ccc2c(C(=O)NC(C)c3ccncc3)cc(-c3ccncc3)nc12", "note": "(centres undefined)", "Potency": "inconclusive: 10 µM [inhibitor, partial curve]"},
      {"smiles": "O=C1CC(c2cccc([N+](=O)[O-])c2)c2cc3c(cc2N1)CCC3", "note": "(centres undefined)", "Potency": "inconclusive: 14.1 µM [inhibitor, partial curve]"},
      {"smiles": "O=C(NCCc1ccccc1)c1nc(-c2ccc(Cl)cc2)n2c1CCCCC2", "activity, negative = inhibition": "inactive: -8.28%"},
      {"smiles": "COc1cccc(N2CC(NC(=O)c3ccc(S(=O)(=O)N4CCOCC4)cc3)CC2=O)c1", "note": "(centres undefined)", "activity, negative = inhibition": "inactive: -4.72%"},
      {"smiles": "COc1ccc(Cn2cnc3c(N)c(C)c(C)cc32)cc1", "activity, negative = inhibition": "inactive: -13.1%"},
      {"smiles": "O=[N+]([O-])c1ccc(N2CCOCC2)cc1NCc1ccccc1", "Potency": "inconclusive: 12.6 µM [inhibitor, partial curve]"},
      {"smiles": "CCc1ccccc1NC(=S)NCC1CCN(c2ccc(OC)cc2)C1", "note": "(centres undefined)", "Potency": "inconclusive: 28.2 µM [inhibitor, partial curve, poor fit]"},
      {"smiles": "Cc1ccc(CCNC(=O)CS(=O)Cc2nc(-c3ccccc3Cl)oc2C)cc1", "note": "(centres undefined)", "activity, negative = inhibition": "inactive: -13.7%"},
      {"smiles": "NS(=O)(=O)c1ccc(Nc2nc(-c3cccc([N+](=O)[O-])c3)cs2)cc1", "Potency": "inconclusive: 1.58 µM [inhibitor, full curve]"},
      {"smiles": "Cc1cccc(NC(=O)CSc2nccn2Cc2ccc(F)cc2)c1C", "activity, negative = inhibition": "inactive: -3.61%"},
      {"smiles": "Cc1ccc(C)c(N2CCN(C(=O)C34CC5CC(C3)CC(n3nnc(C)n3)(C5)C4)CC2)c1", "Potency": "inconclusive: 14.1 µM [inhibitor, partial curve, poor fit]"},
      {"smiles": "COc1ccc(NC(=O)c2cc(-c3cccs3)on2)cc1OC", "Potency": "inconclusive: 3.16 µM [inhibitor, full curve, poor fit]"},
      {"smiles": "CCC(=O)Nc1ccc(SC#N)cc1C", "Potency": "active: 8.91 µM"},
      {"smiles": "Cc1c(/C=N\\NC(=O)C2COc3ccccc3O2)c2ccccc2n1C", "note": "(centres undefined)", "Potency": "inconclusive: 14.1 µM [inhibitor, partial curve]"},
      {"smiles": "COc1ccc(N2CC(O)=C(c3nc4ccccc4s3)C2=N)c(OC)c1", "Potency": "inconclusive: 17.8 µM [inhibitor, partial curve]"},
      {"smiles": "Cc1cc(-c2nnc(CCC(=O)N3CCN(Cc4cccc(F)c4)CC3)o2)c(C)o1", "Potency": "inconclusive: 44.7 µM [inhibitor, single point]"},
      {"smiles": "Cc1cccc(N2CCN(C(=O)Cn3nc(C)n4cccc4c3=O)CC2C)c1", "note": "(centres undefined)", "Potency": "inconclusive: 11.2 µM [activator, partial curve]"},
      {"smiles": "CN(Cc1ccccc1)S(=O)(=O)c1nnc(NC(=O)c2cccc(Cl)c2)s1", "Potency": "inconclusive: 28.2 µM [inhibitor, partial curve, poor fit]"},
      {"smiles": "COc1cc(/C=C/C(=O)OCC(=O)N2CCc3ccccc3C2)ccc1O", "Potency": "inconclusive: 20 µM [inhibitor, partial curve]"},
      {"smiles": "CCOc1ccc(N(CC)S(=O)(=O)c2cc(Br)cc3c2N(C(C)=O)C(C)C3)cc1", "note": "(centres undefined)", "activity, negative = inhibition": "inactive: -14.1%"},
      {"smiles": "Cc1nc(N2CCN(C(=O)c3ccco3)CC2)c2c3c(sc2n1)CC(C)CC3", "note": "(centres undefined)", "Potency": "inconclusive: 17.8 µM [inhibitor, partial curve, poor fit]"},
      {"smiles": "CCOc1ccc(C(=O)Nc2ccc(NC(=O)c3cccs3)cc2)cc1[N+](=O)[O-]", "Potency": "inconclusive: 0.631 µM [inhibitor, full curve]"},
      {"smiles": "O=C1c2ccccc2NC(c2cnc3ccccc3n2)N1O", "note": "(centres undefined)", "Potency": "inconclusive: 17.8 µM [inhibitor, partial curve]"},
      {"smiles": "COc1ccc(/C(N)=N/OC(=O)c2ccc3c(c2)OCO3)cc1OC", "Potency": "inconclusive: 7.08 µM [inhibitor, partial curve]"},
      {"smiles": "CC(=C\\C(=O)O)/C(=C/c1ccco1)C(=O)O", "Potency": "inconclusive: 28.2 µM [inhibitor, single point]"},
      {"smiles": "N#CC1=C(N)Oc2n[nH]c(-c3cccnc3)c2C1c1ccc([N+](=O)[O-])o1", "note": "(centres undefined)", "Potency": "active: 12.6 µM"},
      {"smiles": "COc1ccc(S(=O)(=O)c2cnc3ccc(Cl)cc3c2N2CCCCC2C)cc1", "note": "(centres undefined)", "activity, negative = inhibition": "inactive: -7.33%"},
      {"smiles": "CCOC(=O)C(=O)Nc1nc(-c2ccccc2)c(CC)s1", "Potency": "inconclusive: 39.8 µM [inhibitor, partial curve, poor fit]"},
      {"smiles": "COC(=O)CCCC1=CC2=CC(=O)C(C)(OC(=O)c3cccs3)C(=O)C2=CN1CC1CC1", "note": "(centres undefined)", "Potency": "inconclusive: 10 µM [inhibitor, partial curve] and inconclusive: 3.55 µM [inhibitor, single point]"},
      {"smiles": "CC1CCCc2sc3nc(SCC(=O)c4ccc(Br)cc4)nc(N)c3c21", "note": "(centres undefined)", "activity, negative = inhibition": "inactive: -5.04%"},
      {"smiles": "C=CCNc1ncnc2ccccc12", "Potency": "inconclusive: 44.7 µM [inhibitor, single point]"},
      {"smiles": "COc1ccccc1N1CCN(C(=O)c2cc(-c3ccc4c(c3)OCO4)on2)CC1", "Potency": "inconclusive: 0.501 µM [inhibitor, full curve, poor fit]"},
      {"smiles": "CCC1=C2CC[C@H]3C(=O)N(CC(=O)OC)C(=O)[C@H]3[C@H]2[C@@]2(Cc3ccccc3)C(=NCCc3c[nH]c4ccccc34)OC(=O)N2C1=O", "Potency": "inconclusive: 20 µM [inhibitor, single point]"},
      {"smiles": "CCCc1nn2c(=O)cc(COC(=O)c3ccccc3NC(=O)COc3ccccc3F)nc2s1", "activity, negative = inhibition": "inactive: -3.12%"},
      {"smiles": "O=C(Nc1ccc(N2CCOCC2)c([N+](=O)[O-])c1)c1ccco1", "Potency": "inconclusive: 15.8 µM [inhibitor, partial curve]"},
      {"smiles": "COc1cccc(C(=O)CSc2nnc(-c3cccs3)o2)c1", "Potency": "inconclusive: 3.55 µM [inhibitor, full curve, poor fit]"},
      {"smiles": "Cc1ccc(NCc2nc3ccccc3n2C)cc1", "activity, negative = inhibition": "inactive: 6.67%"},
      {"smiles": "COCCn1nnnc1C(c1cc2cc(C)ccc2[nH]c1=O)N1CCN(C2CCCCC2)CC1", "note": "(centres undefined)", "activity, negative = inhibition": "inactive: -10.3%"},
      {"smiles": "CCN(CC)S(=O)(=O)c1ccc(N2CCCC2)c(NS(=O)(=O)c2ccc(F)cc2)c1", "activity, negative = inhibition": "inactive: -16.5%"},
      {"smiles": "Cc1cc(C)n(-c2ccc(C(=O)OCC(=O)Nc3ccc(S(=O)(=O)N4CCOCC4)cc3)cc2)n1", "Potency": "inconclusive: 44.7 µM [inhibitor, single point]"},
      {"smiles": "Cc1ccccc1NC(=O)c1ccc2c(c1)c(C)c(C)n2Cc1ccccc1", "activity, negative = inhibition": "inactive: -4.97%"},
      {"smiles": "O=C1CC(c2ccccc2)Sc2nc3ccccc3n21", "note": "(centres undefined)", "activity, negative = inhibition": "inactive: -13.4%"},
      {"smiles": "O=c1cc(N2CCN(c3ccccc3)CC2)[nH]c(=O)n1Cc1ccc(F)cc1", "Potency": "inconclusive: 31.6 µM [inhibitor, single point]"},
      {"smiles": "COc1ccc(NC(=O)COC(=O)c2c(F)cccc2Cl)cc1OC", "Potency": "inconclusive: 7.08 µM [inhibitor, full curve]"},
      {"smiles": "COc1ccc(Cl)cc1C(=O)CSc1nnnn1C", "Potency": "inconclusive: 39.8 µM [inhibitor, single point]"},
      {"smiles": "COc1ccc(-c2cc(C(F)(F)F)c3c(=O)n(-c4ccccc4)[nH]c3n2)cc1", "Potency": "active: 8.91 µM"},
      {"smiles": "Cc1c(C(=O)NCc2cccc(Cl)c2)sc2ncnc(N(C)C3CCCCC3)c12", "activity, negative = inhibition": "inactive: -2.96%"},
      {"smiles": "Cc1ccc(S(=O)(=O)Nc2cccnc2Oc2ccc(Cl)cc2)cc1", "activity, negative = inhibition": "inactive: -7.04%"},
      {"smiles": "Nc1c(C(=O)NCc2ccccc2)c2nc3ccccc3nc2n1-c1ccc2c(c1)OCO2", "Potency": "inconclusive: 15.8 µM [inhibitor, partial curve]"},
      {"smiles": "Cc1ccc(N2CCN(/N=C/c3sccc3C)CC2)cc1", "Potency": "inconclusive: 4.47 µM [inhibitor, partial curve]"},
      {"smiles": "COc1ccc(CCNc2ccc(N3C(=O)CC(C)C3=O)cc2[N+](=O)[O-])cc1OC", "note": "(centres undefined)", "Potency": "inconclusive: 15.8 µM [inhibitor, partial curve]"},
      {"smiles": "Cc1cccc(CSc2ncc(Cl)c(C(=O)Nc3sc4c(c3C(N)=O)CCCC4)n2)c1", "Potency": "inconclusive: 28.2 µM [inhibitor, single point]"},
      {"smiles": "COc1ccc(C2NCCn3cccc32)cc1", "note": "(centres undefined)", "Potency": "inconclusive: 39.8 µM [inhibitor, single point]"},
      {"smiles": "CCOc1ccc(-n2cc(-c3ccccc3)c3c(N4CCOCC4)ncnc32)cc1", "Potency": "inconclusive: 17.8 µM [inhibitor, single point]"}
    ]}
  ]
}
